Some of the results follow.

For this test, the target named is T1, MBP-FoxP1dN (Mus musculus, UniProt P58462 326-579).
T1 sequence: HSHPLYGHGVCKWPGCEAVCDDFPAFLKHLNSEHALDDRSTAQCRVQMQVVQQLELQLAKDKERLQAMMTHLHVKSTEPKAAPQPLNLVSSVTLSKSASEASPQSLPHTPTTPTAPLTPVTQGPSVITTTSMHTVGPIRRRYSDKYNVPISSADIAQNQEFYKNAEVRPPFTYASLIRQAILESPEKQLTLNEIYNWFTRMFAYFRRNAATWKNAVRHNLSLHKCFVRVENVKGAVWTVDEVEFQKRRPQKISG
The experiment in a line: PD-seq (MBP pull-down with sequencing); 20 mM Tris-HCl pH 7.5, 100 mM NaCl, 1.5 mM MgCl2, 0.4 uM protein, 0.1 uM dsDNA library, 30 min, room temperature, amylose pull-down; high values mean tight binding. To be noted: protein: recombinant; tags: His6-MBP; chain copies: 2; dsDNA, one strand shown. The essentials:
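The N-terminus-lacking fragment of mouse FoxP3 or FoxP1 carried a His6-MBP tag and was expressed in E. coli. At 0.4 µM it was incubated with 0.1 µM Klenow-filled degenerate double-stranded DNA library for 30 min at room temperature in Tris pH 7.5 buffer with NaCl and MgCl2, and complexes were caught on amylose resin, washed three times, released with proteinase K, PCR-barcoded and Illumina-sequenced. Binding is reads-per-million enrichment of pull-down over input with replicates pooled.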
In the case of “GATGATTGTTCTCCCAGCTGATGAATTGTGGGAATCGAGTAAACAAATTTTCCTAATCTTTCTGTTCAAGCGCCATCTAC”, the binding signal is 1.08 RPM ratio (pull-down/input). As to “GATGATTGTTCTCCCAGCTGATGAATTGGCACACTCGAGTAAACAAATTTTCCTAATCTTTCTGTTCAAGCGCCATCTAC”, the binding signal was 0.934 RPM ratio (pull-down/input). For the sequence “GATGATTGTTCTCCCAGCTGATGAATTAGGGCCCTCGAGTAAACAAATTTTCCTAATCTTTCTGTTCAAGCGCCATCTAC”, the binding signal is 0.865 RPM ratio (pull-down/input). Consider “GATGATTGTTCTCCCAGCTGATGAATTCCACCTCTCGAGTAAACAAATTTTCCTAATCTTTCTGTTCAAGCGCCATCTAC”, for which the binding signal was 0.801 RPM ratio (pull-down/input). Next, “GATGATTGTTCTCCCAGCTGATGAATTTTACTGTTCGAGTAAACAAATTTTCCTAATCTTTCTGTTCAAGCGCCATCTAC”: 0.897 RPM ratio (pull-down/input). With “GATGATTGTTCTCCCAGCTGATGAATTTCGTGCGTCGAGTAAACAAATTTTCCTAATCTTTCTGTTCAAGCGCCATCTAC”, the binding signal is 0.941 RPM ratio (pull-down/input).

On to “GATGATTGTTCTCCCAGCTGATGAATTCTGACGCTCGAGTAAACAAATTTTCCTAATCTTTCTGTTCAAGCGCCATCTAC”, for which the binding signal is 0.876 RPM ratio (pull-down/input). Take “GATGATTGTTCTCCCAGCTGATGAATTACTTCCATCGAGTAAACAAATTTTCCTAATCTTTCTGTTCAAGCGCCATCTAC”: the binding signal is 1.11 RPM ratio (pull-down/input). As to “GATGATTGTTCTCCCAGCTGATGAATTTGCTTAGTCGAGTAAACAAATTTTCCTAATCTTTCTGTTCAAGCGCCATCTAC”, the binding signal is 1.12 RPM ratio (pull-down/input). With “GATGATTGTTCTCCCAGCTGATGAATTAGGCATTTCGAGTAAACAAATTTTCCTAATCTTTCTGTTCAAGCGCCATCTAC”, the binding signal is 1.11 RPM ratio (pull-down/input). Consider “GATGATTGTTCTCCCAGCTGATGAATTTGAAGGATCGAGTAAACAAATTTTCCTAATCTTTCTGTTCAAGCGCCATCTAC”, for which the binding signal was 0.857 RPM ratio (pull-down/input). The result for “GATGATTGTTCTCCCAGCTGATGAATTAAACGAGTCGAGTAAACAAATTTTCCTAATCTTTCTGTTCAAGCGCCATCTAC” reads 0.83 RPM ratio (pull-down/input); that for “GATGATTGTTCTCCCAGCTGATGAATTCTCGCCATCGAGTAAACAAATTTTCCTAATCTTTCTGTTCAAGCGCCATCTAC”, 0.86 RPM ratio (pull-down/input).

Turning to “GATGATTGTTCTCCCAGCTGATGAATTGCCGGTATCGAGTAAACAAATTTTCCTAATCTTTCTGTTCAAGCGCCATCTAC”, the binding signal was 0.959 RPM ratio (pull-down/input).

With “GATGATTGTTCTCCCAGCTGATGAATTAGTTGGTTCGAGTAAACAAATTTTCCTAATCTTTCTGTTCAAGCGCCATCTAC”, the binding signal was 1.04 RPM ratio (pull-down/input). As to “GATGATTGTTCTCCCAGCTGATGAATTCAAAGTGTCGAGTAAACAAATTTTCCTAATCTTTCTGTTCAAGCGCCATCTAC”, the binding signal was 0.91 RPM ratio (pull-down/input). With “GATGATTGTTCTCCCAGCTGATGAATTATCTAGCTCGAGTAAACAAATTTTCCTAATCTTTCTGTTCAAGCGCCATCTAC”, the binding signal is 1.02 RPM ratio (pull-down/input). The result for “GATGATTGTTCTCCCAGCTGATGAATTGTAAAGATCGAGTAAACAAATTTTCCTAATCTTTCTGTTCAAGCGCCATCTAC” reads 1.07 RPM ratio (pull-down/input).
